Consider 32 variants from the GPR68 mutational scans of Howard et al. (2025).

Scores with a large standard error are left out. Two further conditions of the source, in which the scores hardly spread, are not listed. In variant names, del marks residues removed and ins residues inserted between the two positions. For some assays here: The data file names ogerin without a concentration.

First the molecules themselves.
B1: GPR68, Q15743 (parent)
chain: MGNITADNSSMSCTIDHTIHQTLAPVVYVTVLVVGFPANCLSLYFGYLQIKARNELGVYLCNLTVADLFYICSLPFWLQYVLQHDNWSHGDLSCQVCGILLYENIYISVGFLCCISVDRYLAVAHPFRFHQFRTLKAAVGVSVVIWAKELLTSIYFLMHEEVIEDENQHRVCFEHYPIQAWQRAINYYRFLVGFLFPICLLLASYQGILRAVRRSHGTQKSRKDQIQRLVLSTVVIFLACFLPYHVLLLVRSVWEASCDFAKGVFNAYHFSLLLTSFNCVADPVLYCFVSETTHRDLARLRGACLAFLTCSRTGRAREAYPLGAPEASGKSGAQGEEPELLTKLHPAFQTPNSPGSGGFPTGRLA

In data set [1] the parent is B1. As to the kind of experiment: cAMP reporter score (Enrich2 score, wild type = 0); higher = more signal; HEK293T, FACS bins.
Variants of B1 are the subject of data set [2]. As to the kind of experiment: surface expression score (Enrich2 score, wild type = 0); higher = more signal; HEK293T, FACS bins.

As to K51N, the cAMP reporter score in data set [1] (pH 5.5) was -1.02; in data set [1] (pH 6, modulator: ogerin), -0.897; in data set [1] (pH 6.5, modulator: ogerin), -1.53. Also, in data set [2], the surface expression score was -1.78.
Take K51S: the cAMP reporter score in data set [1] (pH 5.5) was 0.306; in data set [1] (pH 6), -0.84; in data set [1] (pH 6, modulator: ogerin), -0.502; in data set [1] (pH 6.5, modulator: ogerin) it was 0.073.
For the variant K51G, the cAMP reporter score in data set [1] (pH 5.5) was -1.32; in data set [1] (pH 6, modulator: ogerin) it was -0.706; in data set [1] (pH 6.5, modulator: ogerin) it was -1.12.
In the case of K51R, the cAMP reporter score in data set [1] (pH 5.5) is 0.681; in data set [1] (pH 6), -0.744; in data set [1] (pH 6, modulator: ogerin) it was 0.89; in data set [1] (pH 6.5, modulator: ogerin), 0.399. Also, the surface expression score in data set [2] is -0.084.
Taken in the same sequence, the figures for K51T were -0.399, -0.741, -0.43, -1.38 and -1.19.
Taken in the same sequence, the figures for K51C were -0.607, -0.899, -0.803, -0.835 and -1.54.
As to K51H, the cAMP reporter score in data set [1] (pH 5.5) was -0.646; in data set [1] (pH 6, modulator: ogerin), -0.704; in data set [1] (pH 6.5, modulator: ogerin) it was -0.726. Also, in data set [2], the surface expression score is -2.82.
K51P: the cAMP reporter score in data set [1] (pH 5.5) was -0.476; in data set [1] (pH 6), -1.15; in data set [1] (pH 6, modulator: ogerin), -1.22; in data set [1] (pH 6.5, modulator: ogerin), -0.833. Moreover, in data set [2], the surface expression score was -3.7.
The matching figures for K51E: -0.658, -0.332, -0.553, -0.748 and -0.683.
As to K51Q, the cAMP reporter score was 0.736 in data set [1] (pH 5.5); -0.23 in data set [1] (pH 6); 0.286 in data set [1] (pH 6, modulator: ogerin); -0.748 in data set [1] (pH 6.5, modulator: ogerin). Moreover, the surface expression score in data set [2] was -0.074.
Taken in the same sequence, the figures for K51L were -0.677, -1.24, -1.03, -1.5 and -1.67.
Consider K51M, for which the cAMP reporter score in data set [1] (pH 5.5) was 0.188; in data set [1] (pH 6) it was -1.3; in data set [1] (pH 6, modulator: ogerin), -0.055; in data set [1] (pH 6.5, modulator: ogerin), -0.668. Moreover, in data set [2], the surface expression score was -1.25.
Turning to K51V, the cAMP reporter score was 0.287 in data set [1] (pH 5.5); -0.617 in data set [1] (pH 6); -0.339 in data set [1] (pH 6, modulator: ogerin); -1.44 in data set [1] (pH 6.5, modulator: ogerin).
As to K51F, the cAMP reporter score in data set [1] (pH 5.5) was -0.715; in data set [1] (pH 6), -1.05; in data set [1] (pH 6, modulator: ogerin), -1.3; in data set [1] (pH 6.5, modulator: ogerin), -1.08. In addition, the surface expression score in data set [2] was -2.11.
The matching figures for K51W: -0.694, -0.853, -1.71, -0.803 and -2.16.
On to K51A, for which the cAMP reporter score in data set [1] (pH 5.5) was -0.469; in data set [1] (pH 6), -1.55; in data set [1] (pH 6, modulator: ogerin), -0.885; in data set [1] (pH 6.5, modulator: ogerin), -1.26. Besides, the surface expression score in data set [2] was -1.36.
Turning to K51I, the cAMP reporter score in data set [1] (pH 5.5) is 0.222; in data set [1] (pH 6), -0.979; in data set [1] (pH 6, modulator: ogerin), 0.032; in data set [1] (pH 6.5, modulator: ogerin) it was -1.1.
As to K51_A52insG, the cAMP reporter score in data set [1] (pH 5.5) is -1.12; in data set [1] (pH 6), -1.46; in data set [1] (pH 6, modulator: ogerin), -0.491; in data set [1] (pH 6.5, modulator: ogerin), -0.586. The surface expression score in data set [2] was -1.91.
Turning to K51_A52del, the cAMP reporter score was -1.71 in data set [1] (pH 5.5); -1.33 in data set [1] (pH 6); -0.939 in data set [1] (pH 6, modulator: ogerin); -0.877 in data set [1] (pH 6.5, modulator: ogerin). The surface expression score in data set [2] was -1.94.
The matching figures for Y47_L48insGSG: -0.911, -0.761, -1.73, -1.34 and -2.61.
Turning to A52F, the cAMP reporter score in data set [1] (pH 5.5) is -1.22; in data set [1] (pH 6, modulator: ogerin), -0.499; in data set [1] (pH 6.5, modulator: ogerin) it was -0.979. Besides, in data set [2], the surface expression score is -1.79.
Regarding A52C, the cAMP reporter score was -0.961 in data set [1] (pH 5.5); -1.52 in data set [1] (pH 6); -0.737 in data set [1] (pH 6, modulator: ogerin); -1.23 in data set [1] (pH 6.5, modulator: ogerin). Also, the surface expression score in data set [2] is -1.5.
Take A52E: the cAMP reporter score in data set [1] (pH 5.5) was -0.072; in data set [1] (pH 6) it was -0.415; in data set [1] (pH 6, modulator: ogerin) it was -0.36; in data set [1] (pH 6.5, modulator: ogerin), 0.367. Moreover, the surface expression score in data set [2] is -0.811.
Taken in the same sequence, the figures for A52H were -0.173, -0.53, -0.045, -0.462 and -0.737.
Taken in the same sequence, the figures for A52D were 0.856, -0.291, 0.975, 0.691 and -0.487.
Consider I50_K51insG, for which the cAMP reporter score in data set [1] (pH 5.5) is -0.236; in data set [1] (pH 6, modulator: ogerin) it was -0.979; in data set [1] (pH 6.5, modulator: ogerin) it was -0.738. Besides, the surface expression score in data set [2] was -2.83.
For the variant Q49del, the cAMP reporter score in data set [1] (pH 5.5) was -1.65; in data set [1] (pH 6) it was -0.648; in data set [1] (pH 6, modulator: ogerin), -1.37; in data set [1] (pH 6.5, modulator: ogerin) it was -1.3. Moreover, the surface expression score in data set [2] was -2.56.
As for I50_A52del, the cAMP reporter score in data set [1] (pH 5.5) is -2.21; in data set [1] (pH 6), -0.214; in data set [1] (pH 6, modulator: ogerin), -0.334; in data set [1] (pH 6.5, modulator: ogerin), -0.34. Further, the surface expression score in data set [2] was -2.7.
With K51_A52insGSG, the cAMP reporter score in data set [1] (pH 5.5) was -1.79; in data set [1] (pH 6) it was -1.71. In addition, the surface expression score in data set [2] was -2.33.
Take Q49_I50insG: the cAMP reporter score is -1.01 in data set [1] (pH 5.5); -1.39 in data set [1] (pH 6); -2.12 in data set [1] (pH 6, modulator: ogerin); -0.598 in data set [1] (pH 6.5, modulator: ogerin). The surface expression score in data set [2] is -1.94.
Taken in the same sequence, the figures for L48_Q49insGSG were -1.33, -0.706, -0.592, -0.13 and -2.51.
The matching figures for Y47Q: -1.06, -0.95, -1.56, -0.524 and -1.89.
